From PubChem BioAssay AID686978 (National Center for Advancing Translational Sciences (NCATS), 2013)
The whole screen tested about 420,000 compounds, of which about 64,000 (15%) were called active. Inconclusive means that the source gave no clear call. Such entries were picked first, then a sample of the others. Calls come from the whole dose curve; as a rule, active = well fitted inhibition curve with a large enough effect; inconclusive = small, poorly fitted or top-dose-only effect; inactive = flat fitted curve, though single readings scatter. Potencies of inconclusive entries are left out as doubtful fits.

Assay: qHTS for Inhibitors of human tyrosyl-DNA phosphodiesterase 1 (TDP1): qHTS in cells in absence of CPT; note: nearly all actives have a fitted effect of over 55% in size
Conditions: DT40 Tdp1-/- hTDP1 cells, no CPT, ATP luminescence, 48 h; activity change, negative = growth inhibition: at 46.2 µM (top of the series) unless noted
Procedure, shortened: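 Stably hTDP1-transfected Tdp1-null chicken DT40 cells were treated with library compounds minus camptothecin and grown for at least 48 hr at 37 °C, after which cellular ATP was quantified by luminescence.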
% is set by controls: 0 for no effect and ±100 for the full control effect; potency is the fitted concentration of half-maximal effect; tags give direction and shape of the fitted curve.

Structure (SMILES)	Potency	activity change, negative = growth inhibition
O=S(=O)(c1ccc2c(c1)OCO2)N1CCN(c2nc(-c3cccs3)nc3ccccc23)CC1	inconclusive [inhibitor, partial curve]	–
Cc1ccc(S(=O)(=O)N2[C@H](c3ccc(Cl)cc3)CC(=O)[C@@H]3CN(S(=O)(=O)c4ccccc4C)[C@H](c4ccc(Cl)cc4)C[C@@H]32)cc1	inconclusive [inhibitor, partial curve]	–
CN(C)CCNC(=O)c1onc(CSc2ccncc2)c1C(=O)NCCN(C)C	–	inactive: -2.16%
COc1ccccc1CC(=O)N1CCN(c2ccc([N+](=O)[O-])cc2)CC1	active: 9.2 µM	–
CN(Cc1nc(-c2cccnc2)no1)S(=O)(=O)c1ccccc1	–	inactive: -14.4%
COc1ccc(NC(=O)CC2C(=O)N(c3ccc(OC)cc3)C(=O)N2C(C)C)cc1 (stereo not drawn)	–	inactive: -4.8%
N#Cc1ccc(C(=O)Nc2ccc(Cl)c(-c3nc4cc(Cl)ccc4o3)c2)c(F)c1	active: 18.4 µM	–
CN(C(=O)CCCOc1ccc2[nH]c(=O)ccc2c1)C1CCCCC1	inconclusive [inhibitor, single point]	–
Nc1ncnc2c1ncn2[C@@H]1O[C@H](COP(=O)(O)OP(=O)(O)OC[C@H]2OC(O)[C@H](O)[C@@H]2O)[C@@H](O)[C@H]1O (stereo partly drawn)	inconclusive [inhibitor, single point]	–
O=C(NC(Cc1ccc(O)cc1)C(=O)O)c1ccc2c(c1)OCO2 (stereo not drawn)	–	inactive: 21.9%
CC(C)Cn1nc(C(=O)Nc2cccc(C(=O)NC3CC3)c2)c2ccccc2c1=O	active: 18.4 µM	–
NC(=O)c1nsc(C(=O)N(Cc2ccc(F)cc2)C(C(=O)NCC2CCCO2)c2ccc(F)cc2)c1N (stereo not drawn)	inconclusive [inhibitor, single point]	–
CCOc1ccccc1Nc1nnc(SCC(=O)NC2CCS(=O)(=O)C2)s1 (stereo not drawn)	–	inactive: 14.1%
Cc1ccc(C)c(NC(=S)Nc2ncccc2C)c1	inconclusive [inhibitor, single point]	–
O=C(Nc1ccccc1)N1CCC(C(=O)N2CCN(Cc3ccccc3)CC2)CC1	–	inactive: -18.5%
COc1ccc(-c2n[nH]c(=S)n2N)c(OC)c1	–	inactive: -1.04%
CCCCCCCCS(=O)c1sc2nc3c(cc2c1N)CCCC3 (stereo not drawn)	inconclusive [inhibitor, partial curve, poor fit]	–
O=C(O)C1C2CCC(C2)C1C(=O)NCCc1ccccc1 (stereo not drawn)	–	inactive: 18.1%
CCOC(=O)c1cccc(NC(=O)c2c(NCc3ccccc3)[nH]c(=O)[nH]c2=O)c1	inconclusive [inhibitor, single point]	–
COc1cccc(CN(C)CC(=O)Nc2cc3oc4ccccc4c3cc2OC)c1	active: 20.6 µM	–
COc1cccc(C(=O)Nc2ccc(C)cc2)c1	–	inactive: -9.07%
CC1CCN(CCCCOc2ccc(Cl)cc2)CC1	–	inactive: -23.7%
Clc1ccc2nc(C3CCN(Cc4nnnn4C4CCCCC4)CC3)[nH]c2c1	inconclusive [inhibitor, single point]	–
Cc1[nH]nc(SCC(=O)NC(C)c2ccccc2)c1[N+](=O)[O-] (stereo not drawn)	inconclusive [inhibitor, full curve, poor fit]	–
CCOc1ccc(NC(=O)CN(C)S(=O)(=O)c2ccc3c(c2)c(=O)n(C)c(=O)n3C)cc1	–	inactive: -7.53%

Structure (SMILES)	Potency	activity change, negative = growth inhibition
CCOC(=O)N1CCN(c2ncnc3c2[nH]c2ccc(F)cc23)CC1	active: 2.06 µM	–
CCCCOc1ccc(C(=O)NCC(=O)NCC(c2cccs2)N2CCOCC2)cc1 (stereo not drawn)	–	inactive: -17.9%
Cc1ccc(C(=O)NCC(c2cccs2)S(=O)(=O)c2cccs2)cc1C (stereo not drawn)	active: 20.6 µM	–
COc1cc(OC)cc(C(=O)Nc2cc(-c3nc4ccccc4s3)ccc2OC)c1	–	inactive: -3.17%
Cc1c(C(=O)N(Cc2cccc(Br)c2)C2CCS(=O)(=O)C2)oc2ccc(F)cc12 (stereo not drawn)	inconclusive [inhibitor, single point]	–
CN(C)c1ncnc2c1ncn2CCn1cnc2c(N(C)C)ncnc21	–	inactive: -9.46%
CCCCN(C(=O)c1cccc(N2C(=O)c3ccccc3C2=O)c1)c1c(N)n(CCCC)c(=O)[nH]c1=O	–	inactive: 17.5%
S=C(c1ccc(-c2ccc(Cl)c(Cl)c2)o1)N1CCOCC1	inconclusive [inhibitor, partial curve]	–
C=CCN(C(=O)c1csnn1)C(C(=O)NC1CCCC1)c1cccs1 (stereo not drawn)	–	inactive: -13%
CCN(C(=O)c1nn(-c2ccc(OC)c(Cl)c2)c(=O)c2c1c1ccccc1n2C)c1cc(OC)ccc1OC	active: 14.6 µM	–
CCCc1cc(-c2n[nH]c(=S)n2Cc2ccccc2)cs1	active: 29.1 µM	–
O=C(Cc1ccccc1)Nc1cccc(S(=O)(=O)N2CCCCCC2)c1	–	inactive: -10.2%
CCC(=O)N1c2ccc(S(=O)(=O)CCC(=O)NCc3ccc4c(c3)OCO4)cc2CC1C (stereo not drawn)	–	inconclusive: -34.5% [inhibitor]
COc1ccc(C(=O)NCc2nnc(SCC(=O)NCc3ccco3)o2)cc1OC	–	inactive: -0.0357%
Cc1ccc(-n2ncc(C(=O)N3CCc4ccccc4C3)c2C2CCN(C(=O)OC(C)(C)C)CC2)cc1C	inconclusive [inhibitor, full curve, poor fit]	–
COc1ccc(NC(=O)c2c(C)oc3ccc(O)c(CN4CCCC(C)C4)c23)cc1Cl (stereo not drawn)	active: 16.4 µM	–
CCc1nnc(NC(=O)C(c2ccccc2)c2ccccc2)s1	inconclusive [inhibitor, single point]	–
O=C(O)C1(Nc2ccc([N+](=O)[O-])cc2[N+](=O)[O-])CCCC1	inconclusive [inhibitor, single point]	–
Clc1cccc(-c2nc3c4ccccc4ccn3c2Cc2ccccc2)c1	inconclusive [inhibitor, single point]	–
COc1ccc(C(CC(=O)Nc2ccc(F)cc2)c2ccccc2)cc1 (stereo not drawn)	inconclusive [inhibitor, single point]	–
Cc1ccc(C)c(CN2C(=O)c3ccccc3Sc3ccc(C(=O)NC4CCCC4)cc32)c1	inconclusive [inhibitor, single point]	–
Cc1cc(C(=O)Nc2ncn(Cc3ccc(F)cc3)n2)ccc1[N+](=O)[O-]	–	inactive: 15.4%
COc1ncc2nc(CCc3ccccc3)c(=O)n(C3CC3)c2n1	inconclusive [inhibitor, partial curve]	–
CC(C)S(=O)(=O)c1csc(NC(=O)Nc2cccc([N+](=O)[O-])c2)c1Cl	active: 14.6 µM	–
Cc1cc(C)c(NC(=O)COC(=O)Cc2cccs2)c(C)c1	–	inactive: 26.2%

Structure (SMILES)	Potency	activity change, negative = growth inhibition
COc1ccc(N2CCN(C(=O)c3ccc(CS(=O)Cc4ccc(C)cc4)o3)CC2)cc1 (stereo not drawn)	inconclusive [inhibitor, single point]	–
NC(=O)c1ccc(Nc2ccc3nonc3c2[N+](=O)[O-])cc1	–	inactive: -0.787%
COC(=O)c1ccc(CSc2nc3ccc(S(=O)(=O)N4CCOCC4)cc3[nH]2)cc1	inconclusive [inhibitor, single point]	–
Cc1ccc(S(=O)(=O)NCCSCc2ccco2)cc1	–	inconclusive: -30.7% [inhibitor]
COc1ccccc1C1CCN(c2ccc([N+](=O)[O-])cn2)CC1	inconclusive [inhibitor, single point]	–
NC(=O)C(C1=CCCCC1)c1ccccc1 (stereo not drawn)	–	inactive: -3.08%
COc1ccc(C(=O)Nc2ccccc2N2CCOCC2)cc1S(=O)(=O)N1CCOCC1	inconclusive [inhibitor, single point]	–
COc1ccccc1-c1cn(S(=O)(=O)c2ccc(C)cc2)nc1N	inconclusive [inhibitor, single point]	–
Cc1ccc(N2CCN(C(=O)CCc3c(C)nc4ncnn4c3C)CC2)c(C)c1	inconclusive [inhibitor, single point]	–
CCc1ncc(/C=C2\C(=O)Nc3ccccc32)[nH]1	–	inactive: -6.25%
Cc1nc2c(c(C)nn2-c2ccccc2)c(C)c1CCC(=O)Nc1ccc(CN2CCCC2)cc1	inconclusive [inhibitor, single point]	–
CSCCC(NC(=O)c1ccccc1Cl)C(=O)N1CCN(C(C)=O)CC1 (stereo not drawn)	–	inactive: 0.0612%
CCc1ccc2oc(=O)cc(CN3CCCCC3C)c2c1 (stereo not drawn)	inconclusive [inhibitor, single point]	–
COc1ccc(NC(=S)NCCc2ccccc2)c(OC)c1	inconclusive [inhibitor, single point]	–
COc1ccc(CNC(=O)CN(C(=O)CCC(=O)Nc2nccs2)c2ccccc2C)cc1	inconclusive [inhibitor, single point]	–
Cc1ccc(OCCNC(=O)c2cccc(S(=O)(=O)NCc3ccccc3)c2)cc1	active: 4.61 µM	–
CCNC(=O)c1cc(S(=O)(=O)N2CCSCC2)ccc1OC	–	inactive: 14.5%
CCOc1cc(C(=O)Nc2cc(C)ccn2)cc(OCC)c1OCC	inconclusive [inhibitor, single point]	–
Cc1ccccc1N1C(N)=NC(N)=NC1(C)C	inconclusive [inhibitor, single point]	–
COc1cccc(S(=O)(=O)NCc2ccc(C(=O)Nc3cccc(Cl)c3)cc2)c1	active: 25.9 µM	–
COc1ccc(OC)c(-n2c(C)cc(/C=C3\C(=N)N4N=C(CC(=O)N5CCOCC5)SC4=NC3=O)c2C)c1	–	inactive: 7.35%
O=C(CNc1cccc(S(=O)(=O)N2CCCCC2)c1)Nc1cccc(F)c1	inconclusive [inhibitor, partial curve]	–
CC(C)(C)OC(=O)NCC(=O)Oc1cc2oc(=O)cc(-c3ccccc3)c2cc1Cl	inconclusive [inhibitor, partial curve]	–
